The supplement of paper PMC10724272
MIC of invasive clinical C. tropicalis isolates, CLSI broth microdilution (fluconazole 0.12-256 mg/L, up to 1,024 for the azole-resistant cluster and its neighbour group; other ranges not stated); higher = less susceptible. Call: susceptible or wild type [S] / resistant or non-wild type [R] by CLSI breakpoints or cut-offs; intermediate and dose-dependent carry no call. '<=' and '>=' at the end values are inferred; the source marks only some of them. Isolates are numbered anew.

Compound: CCCCCOc1ccc(-c2ccc(-c3ccc(C(=O)N[C@H]4C[C@@H](O)[C@@H](O)NC(=O)[C@@H]5[C@@H](O)[C@@H](C)CN5C(=O)[C@H]([C@@H](C)O)NC(=O)[C@H]([C@H](O)[C@@H](O)c5ccc(O)cc5)NC(=O)[C@@H]5C[C@@H](O)CN5C(=O)[C@H]([C@@H](C)O)NC4=O)cc3)cc2)cc1 [anidulafungin]
Assay: CLSI broth microdilution.

| Test System | MIC |
| --- | --- |
| Candida tropicalis isolate 268 (ERG11 copies: 2, Erg11p: no key change) | 0.03 mg/L [S] |
| Candida tropicalis isolate 233 (ERG11 copies: 10, Erg11p: Y132F, S154F (heterozygous)) | 0.25 mg/L [S] |
| Candida tropicalis isolate 138 (ERG11 copies: 2, Erg11p: no key change) | ≤ 0.015 mg/L [S] |
| Candida tropicalis isolate 224 (ERG11 copies: 2, Erg11p: no key change) | 0.25 mg/L [S] |
| Candida tropicalis isolate 217 (ERG11 copies: 2, Erg11p: no key change) | 0.03 mg/L [S] |
| Candida tropicalis isolate 357 (ERG11 copies: 2, Erg11p: no key change) | 0.03 mg/L [S] |
| Candida tropicalis isolate 231 (ERG11 copies: 2, Erg11p: no key change) | 0.12 mg/L [S] |
| Candida tropicalis isolate 150 (ERG11 copies: 16, Erg11p: Y132F, S154F (heterozygous)) | 0.25 mg/L [S] |
| Candida tropicalis isolate 234 (ERG11 copies: 2, Erg11p: no key change) | ≤ 0.015 mg/L [S] |
| Candida tropicalis isolate 385 (ERG11 copies: 2, Erg11p: no key change) | 0.12 mg/L [S] |
| Candida tropicalis isolate 220 (ERG11 copies: 2, Erg11p: no key change) | ≤ 0.015 mg/L [S] |
| Candida tropicalis isolate 143 (ERG11 copies: 2, Erg11p: no key change) | 0.03 mg/L [S] |
| Candida tropicalis isolate 145 (ERG11 copies: 7, Erg11p: Y132F, S154F (heterozygous)) | 0.06 mg/L [S] |
| Candida tropicalis isolate 48 (ERG11 copies: 8, Erg11p: Y132F, S154F (heterozygous)) | 0.12 mg/L [S] |
| Candida tropicalis isolate 133 (ERG11 copies: 2, Erg11p: no key change) | 0.06 mg/L [S] |
| Candida tropicalis isolate 130 (ERG11 copies: 2, Erg11p: no key change) | 0.12 mg/L [S] |
| Candida tropicalis isolate 154 (ERG11 copies: 2, Erg11p: no key change) | 0.06 mg/L [S] |
| Candida tropicalis isolate 390 (ERG11 copies: 2, Erg11p: no key change) | ≤ 0.015 mg/L [S] |
| Candida tropicalis isolate 272 (ERG11 copies: 2, Erg11p: no key change) | 0.06 mg/L [S] |
| Candida tropicalis isolate 296 (ERG11 copies: 2, Erg11p: no key change) | 0.12 mg/L [S] |
| Candida tropicalis isolate 209 (ERG11 copies: 2, Erg11p: no key change) | 0.12 mg/L [S] |
| Candida tropicalis isolate 5 (ERG11 copies: 6, Erg11p: Y132F, S154F (heterozygous)) | ≤ 0.015 mg/L [S] |
| Candida tropicalis isolate 426 (ERG11 copies: 2, Erg11p: no key change) | 0.03 mg/L [S] |
| Candida tropicalis isolate 392 (ERG11 copies: 2, Erg11p: no key change) | 0.12 mg/L [S] |
| Candida tropicalis isolate 124 (ERG11 copies: 2, Erg11p: no key change) | 0.03 mg/L [S] |
| Candida tropicalis isolate 103 (ERG11 copies: 2, Erg11p: no key change) | 0.06 mg/L [S] |
| Candida tropicalis isolate 206 (ERG11 copies: 2, Erg11p: no key change) | 0.03 mg/L [S] |

Compound: CC[C@@H]([C@H](C)O)n1ncn(-c2ccc(N3CCN(c4ccc(OC[C@@H]5CO[C@@](Cn6cncn6)(c6ccc(F)cc6F)C5)cc4)CC3)cc2)c1=O [posaconazole]
Assay: CLSI broth microdilution.

| Test System | MIC |
| --- | --- |
| Candida tropicalis isolate 41 (ERG11 copies: 2, Erg11p: no key change) | 0.06 mg/L [S] |
| Candida tropicalis isolate 114 (ERG11 copies: 2, Erg11p: no key change) | 0.12 mg/L [S] |
| Candida tropicalis isolate 52 (ERG11 copies: 2, Erg11p: Y132F, S154F (homozygous)) | 1 mg/L [R] |
| Candida tropicalis isolate 431 (ERG11 copies: 2, Erg11p: no key change) | 0.12 mg/L [S] |
| Candida tropicalis isolate 366 (ERG11 copies: 8, Erg11p: Y132F, S154F (heterozygous)) | 0.5 mg/L [R] |
| Candida tropicalis isolate 171 (ERG11 copies: 2, Erg11p: no key change) | 0.12 mg/L [S] |
| Candida tropicalis isolate 278 (ERG11 copies: 2, Erg11p: no key change) | ≥ 8 mg/L [R] |
| Candida tropicalis isolate 358 (ERG11 copies: 2, Erg11p: Y132F, S154F (heterozygous)) | 1 mg/L [R] |
| Candida tropicalis isolate 363 (ERG11 copies: 2, Erg11p: no key change) | 0.5 mg/L [R] |
| Candida tropicalis isolate 268 (ERG11 copies: 2, Erg11p: no key change) | 0.5 mg/L [R] |
| Candida tropicalis isolate 233 (ERG11 copies: 10, Erg11p: Y132F, S154F (heterozygous)) | 1 mg/L [R] |
| Candida tropicalis isolate 138 (ERG11 copies: 2, Erg11p: no key change) | 0.12 mg/L [S] |
| Candida tropicalis isolate 224 (ERG11 copies: 2, Erg11p: no key change) | 0.12 mg/L [S] |
| Candida tropicalis isolate 217 (ERG11 copies: 2, Erg11p: no key change) | 0.25 mg/L [S] |
| Candida tropicalis isolate 357 (ERG11 copies: 2, Erg11p: no key change) | 0.25 mg/L [S] |
| Candida tropicalis isolate 231 (ERG11 copies: 2, Erg11p: no key change) | 0.5 mg/L [R] |
| Candida tropicalis isolate 150 (ERG11 copies: 16, Erg11p: Y132F, S154F (heterozygous)) | 1 mg/L [R] |
| Candida tropicalis isolate 234 (ERG11 copies: 2, Erg11p: no key change) | 0.25 mg/L [S] |

| Test System | MIC |
| --- | --- |
| Candida tropicalis isolate 385 (ERG11 copies: 2, Erg11p: no key change) | 0.5 mg/L [R] |
| Candida tropicalis isolate 220 (ERG11 copies: 2, Erg11p: no key change) | 0.25 mg/L [S] |
| Candida tropicalis isolate 143 (ERG11 copies: 2, Erg11p: no key change) | 0.12 mg/L [S] |
| Candida tropicalis isolate 145 (ERG11 copies: 7, Erg11p: Y132F, S154F (heterozygous)) | 2 mg/L [R] |
| Candida tropicalis isolate 48 (ERG11 copies: 8, Erg11p: Y132F, S154F (heterozygous)) | 1 mg/L [R] |
| Candida tropicalis isolate 133 (ERG11 copies: 2, Erg11p: no key change) | 0.06 mg/L [S] |
| Candida tropicalis isolate 130 (ERG11 copies: 2, Erg11p: no key change) | 0.12 mg/L [S] |
| Candida tropicalis isolate 154 (ERG11 copies: 2, Erg11p: no key change) | 0.06 mg/L [S] |
| Candida tropicalis isolate 390 (ERG11 copies: 2, Erg11p: no key change) | 0.25 mg/L [S] |
| Candida tropicalis isolate 272 (ERG11 copies: 2, Erg11p: no key change) | ≥ 8 mg/L [R] |
| Candida tropicalis isolate 296 (ERG11 copies: 2, Erg11p: no key change) | 0.25 mg/L [S] |
| Candida tropicalis isolate 209 (ERG11 copies: 2, Erg11p: no key change) | 0.25 mg/L [S] |
| Candida tropicalis isolate 5 (ERG11 copies: 6, Erg11p: Y132F, S154F (heterozygous)) | 0.5 mg/L [R] |
| Candida tropicalis isolate 426 (ERG11 copies: 2, Erg11p: no key change) | 0.25 mg/L [S] |
| Candida tropicalis isolate 392 (ERG11 copies: 2, Erg11p: no key change) | 0.12 mg/L [S] |
| Candida tropicalis isolate 124 (ERG11 copies: 2, Erg11p: no key change) | 1 mg/L [R] |
| Candida tropicalis isolate 103 (ERG11 copies: 2, Erg11p: no key change) | 0.03 mg/L [S] |
| Candida tropicalis isolate 206 (ERG11 copies: 2, Erg11p: no key change) | 0.25 mg/L [S] |

Compound: CC[C@H](C)C[C@H](C)CCCCCCCCC(=O)N[C@H]1C[C@@H](O)[C@@H](NCCN)NC(=O)[C@@H]2[C@@H](O)CCN2C(=O)[C@H]([C@H](O)CCN)NC(=O)[C@H]([C@H](O)[C@@H](O)c2ccc(O)cc2)NC(=O)[C@@H]2C[C@@H](O)CN2C(=O)[C@H]([C@@H](C)O)NC1=O [caspofungin]
Assay: CLSI broth microdilution.

| Test System | MIC |
| --- | --- |
| Candida tropicalis isolate 41 (ERG11 copies: 2, Erg11p: no key change) | 0.03 mg/L [S] |
| Candida tropicalis isolate 114 (ERG11 copies: 2, Erg11p: no key change) | 0.03 mg/L [S] |
| Candida tropicalis isolate 52 (ERG11 copies: 2, Erg11p: Y132F, S154F (homozygous)) | 0.25 mg/L [S] |
| Candida tropicalis isolate 431 (ERG11 copies: 2, Erg11p: no key change) | 0.03 mg/L [S] |
| Candida tropicalis isolate 366 (ERG11 copies: 8, Erg11p: Y132F, S154F (heterozygous)) | 0.03 mg/L [S] |
| Candida tropicalis isolate 171 (ERG11 copies: 2, Erg11p: no key change) | 0.03 mg/L [S] |
| Candida tropicalis isolate 278 (ERG11 copies: 2, Erg11p: no key change) | 0.03 mg/L [S] |
| Candida tropicalis isolate 358 (ERG11 copies: 2, Erg11p: Y132F, S154F (heterozygous)) | 0.03 mg/L [S] |
| Candida tropicalis isolate 363 (ERG11 copies: 2, Erg11p: no key change) | 0.06 mg/L [S] |
| Candida tropicalis isolate 268 (ERG11 copies: 2, Erg11p: no key change) | 0.03 mg/L [S] |
| Candida tropicalis isolate 233 (ERG11 copies: 10, Erg11p: Y132F, S154F (heterozygous)) | 0.25 mg/L [S] |
| Candida tropicalis isolate 138 (ERG11 copies: 2, Erg11p: no key change) | 0.06 mg/L [S] |
| Candida tropicalis isolate 224 (ERG11 copies: 2, Erg11p: no key change) | 0.12 mg/L [S] |
| Candida tropicalis isolate 217 (ERG11 copies: 2, Erg11p: no key change) | 0.03 mg/L [S] |
| Candida tropicalis isolate 357 (ERG11 copies: 2, Erg11p: no key change) | 0.03 mg/L [S] |
| Candida tropicalis isolate 231 (ERG11 copies: 2, Erg11p: no key change) | 0.25 mg/L [S] |
| Candida tropicalis isolate 150 (ERG11 copies: 16, Erg11p: Y132F, S154F (heterozygous)) | 0.06 mg/L [S] |
| Candida tropicalis isolate 234 (ERG11 copies: 2, Erg11p: no key change) | 0.03 mg/L [S] |
